The supplement of paper PMC8728848
Some of the results follow.

Experiments:
Test in all cases: glycan array binding signal (z-score within array); higher = stronger binding
Details in all cases: glycan notation: IUPAC condensed, linker removed
[1] = biological target: Gal(b1-4)GlcNAc(b1-6)Gal(b1-4)GlcNAc
Outline: (§1)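 From the Consortium for Functional Glycomics database, 3228 arrays were curated, keeping only those whose protein sequence was available. Binding is given as a within-array Z-score averaged across arrays sharing a protein sequence and across linkers. Negative Z-scores can be read as non-binding.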

[2] = biological target: Gal(b1-4)GlcNAc(b1-6)Gal(b1-4)GlcNAc(b1-6)GalNAc
Outline: as §1

[3] = biological target: Gal(b1-4)GlcNAc(b1-6)GalNAc
Outline: as §1

[4] = biological target: Gal(b1-4)GlcNAc(b1-6)[Gal(b1-3)]GalNAc
Outline: as §1

[5] = biological target: Gal(b1-4)GlcNAc(b1-6)[Gal(b1-4)GlcNAc(b1-3)]GalNAc
Outline: as §1

Gal(b1-4)GlcNAc6P = biological target: Gal(b1-4)GlcNAc6P
Outline: as §1

Gal(b1-6)Gal = biological target: Gal(b1-6)Gal
Outline: as §1

Gal3S(b1-3)GalNAc = biological target: Gal3S(b1-3)GalNAc
Outline: as §1

Gal3S(b1-3)GlcNAc = biological target: Gal3S(b1-3)GlcNAc
Outline: as §1

[6] = biological target: Gal3S(b1-3)[Fuc(a1-4)]GlcNAc
Outline: as §1

Gal3S(b1-4)Glc = biological target: Gal3S(b1-4)Glc
Outline: as §1

Gal3S(b1-4)Glc6S = biological target: Gal3S(b1-4)Glc6S
Outline: as §1

Gal3S(b1-4)GlcNAc = biological target: Gal3S(b1-4)GlcNAc
Outline: as §1

Gal3S(b1-4)GlcNAc6S = biological target: Gal3S(b1-4)GlcNAc6S
Outline: as §1

[7] = biological target: Gal3S(b1-4)[Fuc(a1-3)]Glc
Outline: as §1

[8] = biological target: Gal3S(b1-4)[Fuc(a1-3)]Glc6S
Outline: as §1

[9] = biological target: Gal3S(b1-4)[Fuc(a1-3)]GlcNAc
Outline: as §1

[10] = biological target: Gal3S(b1-4)[Fuc(a1-3)]GlcNAc6S
Outline: as §1

Gal3S4S(b1-4)GlcNAc = biological target: Gal3S4S(b1-4)GlcNAc
Outline: as §1

Gal3S6S(b1-4)GlcNAc = biological target: Gal3S6S(b1-4)GlcNAc
Outline: as §1

Gal3S6S(b1-4)GlcNAc6S = biological target: Gal3S6S(b1-4)GlcNAc6S
Outline: as §1

Gal4S(b1-4)GlcNAc = biological target: Gal4S(b1-4)GlcNAc
Outline: as §1

Gal4S6S(b1-4)GlcNAc = biological target: Gal4S6S(b1-4)GlcNAc
Outline: as §1

B1: HPA (Helix pomatia), Q2F1K8 (protein)
chain: MQAFYSGLLLLCVVAFAAAQRVQSGKIDCGNDAGWAKVPSDDPGRDNTRELAKNITFASPYCRPPVVLLSITQLDVEQSQNLRVIARLYSVSPTGFKASCYTWHNTKVYSMSISWISIENY
For B1, the “glycan array binding signal (z-score)” value [1] was -0.234, the “glycan array binding signal (z-score)” value [2] was -0.17 and the “glycan array binding signal (z-score)” value [3] was -0.22. For the same binder, the “glycan array binding signal (z-score)” value [4] was -0.255, the “glycan array binding signal (z-score)” value [5] was -0.157 and the “glycan array binding signal (z-score)” value (Gal(b1-4)GlcNAc6P) was -0.288. For the same binder, the “glycan array binding signal (z-score)” value (Gal(b1-6)Gal) was -0.294, the “glycan array binding signal (z-score)” value (Gal3S(b1-3)GalNAc) was 0.371 and the “glycan array binding signal (z-score)” value (Gal3S(b1-3)GlcNAc) was -0.264. For the same binder, the “glycan array binding signal (z-score)” value [6] was -0.189, the “glycan array binding signal (z-score)” value (Gal3S(b1-4)Glc) was -0.285 and the “glycan array binding signal (z-score)” value (Gal3S(b1-4)Glc6S) was -0.305. For the same binder, the “glycan array binding signal (z-score)” value (Gal3S(b1-4)GlcNAc) was -0.267, the “glycan array binding signal (z-score)” value (Gal3S(b1-4)GlcNAc6S) was -0.75 and the “glycan array binding signal (z-score)” value [7] was -0.697. The “glycan array binding signal (z-score)” value [8] was 0.222, the “glycan array binding signal (z-score)” value [9] was -0.246 and the “glycan array binding signal (z-score)” value [10] was -0.246. For the same binder, the “glycan array binding signal (z-score)” value (Gal3S4S(b1-4)GlcNAc) was -0.243, the “glycan array binding signal (z-score)” value (Gal3S6S(b1-4)GlcNAc) was -0.098 and the “glycan array binding signal (z-score)” value (Gal3S6S(b1-4)GlcNAc6S) was -0.136. For the same binder, the “glycan array binding signal (z-score)” value (Gal4S(b1-4)GlcNAc) was -0.282 and the “glycan array binding signal (z-score)” value (Gal4S6S(b1-4)GlcNAc) was -0.142.
